Tested on: B16 cells, PPC-1 cells
Test: Effect on calcium phosphate, adenoviral and electroporation transfection in vitro
Type: cell-based
Description: B16 cells were electroporated with p4241 as per BioRad (Hercules, Calif.) instructions for the GenePulser II. Calcium phosphate transfections were performed as described in the manufacturer's instructions (Gibco BRL, Grand Island, N.Y.). Adenoviral infection of PPC-1 cells was performed as previously described (Graham and […], 1991).

In the case of fucoidan, the “adenoviral or electroporation methods of transfection in vitro” value is reported as “did not interfere”.
